Source: the supplement of paper PMC5499739
In all, about 16,000 sequences were measured (“Z-score”: median about -0.37, highest 2% from about 3.1 on). The list shows a part of the results.

system: RBM10 RRM1-ZnF-RRM2 (GST-tagged construct); experiment: RNAcompete 7-mer binding Z-score; higher = stronger binding preference
Protocol: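 RNAcompete: 20 pmol GST-tagged RBM10 RNA-binding constructs were incubated with a designed RNA pool of about 241,000 sequences up to 41 nt (1.5 nmol) on glutathione beads for 30 min at 4 °C and washed. Bound RNAs were identified by microarray hybridisation. Each RNA 7-mer is scored by a one-sided Z-score of its enrichment, computed over probes that contain the 7-mer within longer pool sequences.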

| Sequence | RNAcompete 7-mer binding Z-score |
| --- | --- |
| ACGGCGC | -0.147 |
| UGACGUG | 0.552 |
| UAUACAA | -0.133 |
| GAAGAAG | 2.62 |
| AGCGCAG | 0.312 |
| AACGGCC | -0.3 |
| UGUGGAA | 1.47 |
| UGAGGCC | 0.133 |
| CUGUUUA | -0.948 |
| UGAUAGA | 0.184 |
| ACACCAA | -0.53 |
| AGUCAAA | -0.213 |
| GGGGAUA | 3.16 |
| GCCCGUU | -0.748 |
| AUUCGUA | -0.53 |
| GGGGCCA | 0.88 |
| AGCACCG | -0.162 |
| GAAAUUG | 0.476 |
| UAACAUC | -0.562 |
| CAUUUAA | -0.799 |
| CAUUAAU | -0.511 |
| CUUUAAU | -0.763 |
| GCAAAGC | 0.0313 |

| Sequence | RNAcompete 7-mer binding Z-score |
| --- | --- |
| UACACCU | -0.704 |
| AGGUAAG | 2.74 |
| GGCAGAU | 0.829 |
| UAGCCCG | -0.639 |
| UAUAUUG | -0.406 |
| CUGCUUG | -0.868 |
| AUGGGGC | 2.6 |
| UCAUGCA | -0.602 |
| AUCCCGG | -0.439 |
| GAGGAAG | 3.52 |
| CUCGUUU | -0.912 |
| AUUAAGC | -0.522 |
| GAGCCGG | 0.538 |
| CGGUGUC | 0.181 |
| GUCAAGA | -0.0634 |
| UUUGUAA | -0.566 |
| UACCUUC | -0.857 |
| GAUGACA | 0.607 |
| GUAGUCG | 0.301 |
| GCGGACC | 0.184 |
| GGCGGCU | 0.443 |
| AAUUGGU | 1.06 |
| GCGCAAU | -0.253 |

| Sequence | RNAcompete 7-mer binding Z-score |
| --- | --- |
| UGGUAGG | 3.16 |
| GUGAAAU | 0.621 |
| AACCCCU | -0.81 |
| GCACCGA | -0.409 |
| AGUGCUA | 0.111 |
| UAGCCAU | -0.635 |
| AAACGGG | 2.9 |
| CCCCGUU | -0.817 |
| AAUGAUU | -0.293 |
| CGGCUCG | -0.242 |
| CCUCACC | -0.726 |
| AGGUAUU | 0.618 |
| AGGAGUG | 2.8 |
| UUGGCUG | -0.271 |
| GGUCCGA | 0.151 |
| UACUAGU | -0.471 |
| AUAUCAC | -0.617 |
| UGACGGC | 0.272 |
| UCUCAUC | -0.715 |
| AAGUCGU | -0.165 |
| AGGGCCU | -0.154 |
| AAUCCGC | -0.697 |
| GGACAAU | 1.34 |

| Sequence | RNAcompete 7-mer binding Z-score |
| --- | --- |
| CUGACUA | -0.668 |
| AUUUCAC | -0.741 |
| CAGGAGC | 1.47 |
| UCGGGGU | 1.76 |
| UGUUUUC | -0.664 |
| AGCUGCG | -0.122 |
| GCAAGCG | 0.603 |
| UGAGAUA | 0.119 |
| UACUACA | -0.46 |
| CUACACA | -0.599 |
| UUUAAAU | -0.766 |
| AGGGGCC | 0.581 |
| UUCAGUA | -0.0233 |
| AGGCAGU | 0.618 |
| CUUGGUG | 0.472 |
| UGAACUA | -0.384 |
| CUCGGGU | 0.283 |
| UCAACAG | -0.158 |
| UCAGUAA | -0.195 |
| GCUUCUC | -0.883 |
| GUAACAA | 0.166 |
| UAUAUCG | -0.391 |
| UGAUGGC | 0.712 |
